# From the supplement of paper PMC8728848
# This is one part of the list.
# Key:
# Test in all cases: glycan array binding signal (z-score within array); higher = stronger binding
# Conditions in all cases: glycan notation: IUPAC condensed, linker removed
# Fuc(a1-2)Gal = target: Fuc(a1-2)Gal
# Procedure, shortened: (§1)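 Glycan array data came from 3228 arrays in the Consortium for Functional Glycomics database, and only arrays with an available protein sequence were kept. Glycan names were put into IUPAC-condensed notation, and columns mapping to the same glycan were averaged. The binding signal is a within-array Z-score, averaged across arrays of one protein sequence run at different concentrations or buffers and across linkers. A negative Z-score can be read as non-binding.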
# Fuc(a1-2)Gal(b1-3)GalNAc = target: Fuc(a1-2)Gal(b1-3)GalNAc
# Procedure, shortened: as §1
# [1] = target: Fuc(a1-2)Gal(b1-3)GalNAc(b1-3)Gal
# Procedure, shortened: as §1
# [2] = target: Fuc(a1-2)Gal(b1-3)GalNAc(b1-3)Gal(a1-4)Gal(b1-4)Glc
# Procedure, shortened: as §1
# [3] = target: Fuc(a1-2)Gal(b1-3)GalNAc(b1-4)[Neu5Ac(a2-3)]Gal(b1-4)Glc
# Procedure, shortened: as §1
# Fuc(a1-2)Gal(b1-3)GlcNAc = target: Fuc(a1-2)Gal(b1-3)GlcNAc
# Procedure, shortened: as §1
# [4] = target: Fuc(a1-2)Gal(b1-3)GlcNAc(b1-3)Gal(b1-4)Glc
# Procedure, shortened: as §1
# [5] = target: Fuc(a1-2)Gal(b1-3)[Fuc(a1-4)]GlcNAc
# Procedure, shortened: as §1
# Fuc(a1-2)Gal(b1-4)Glc = target: Fuc(a1-2)Gal(b1-4)Glc
# Procedure, shortened: as §1
# Fuc(a1-2)Gal(b1-4)GlcNAc = target: Fuc(a1-2)Gal(b1-4)GlcNAc
# Procedure, shortened: as §1
# [6] = target: Fuc(a1-2)Gal(b1-4)GlcNAc(b1-3)Gal(b1-4)GlcNAc
# Procedure, shortened: as §1
# [7] = target: Fuc(a1-2)Gal(b1-4)GlcNAc(b1-3)Gal(b1-4)GlcNAc(b1-3)Gal(b1-4)GlcNAc
# Procedure, shortened: as §1
# [8] = target: Fuc(a1-2)Gal(b1-4)[Fuc(a1-3)]GlcNAc
# Procedure, shortened: as §1
# [9] = target: Fuc(a1-2)Gal(b1-4)[Fuc(a1-3)]GlcNAc(b1-3)Gal(b1-4)[Fuc(a1-3)]GlcNAc
# Procedure, shortened: as §1
# [10] = target: Fuc(a1-2)Gal(b1-4)[Fuc(a1-3)]GlcNAc(b1-3)Gal(b1-4)[Fuc(a1-3)]GlcNAc(b1-3)Gal(b1-4)[Fuc(a1-3)]GlcNAc
# Procedure, shortened: as §1
# Fuc(a1-2)GlcNAc = target: Fuc(a1-2)GlcNAc
# Procedure, shortened: as §1
# Fuc(a1-2)[Gal(a1-3)]Gal = target: Fuc(a1-2)[Gal(a1-3)]Gal
# Procedure, shortened: as §1
# [11] = target: Fuc(a1-2)[Gal(a1-3)]Gal(b1-3)GlcNAc
# Procedure, shortened: as §1
# [12] = target: Fuc(a1-2)[Gal(a1-3)]Gal(b1-4)Glc
# Procedure, shortened: as §1
# [13] = target: Fuc(a1-2)[Gal(a1-3)]Gal(b1-4)GlcNAc
# Procedure, shortened: as §1
# [14] = target: Fuc(a1-2)[Gal(a1-3)]Gal(b1-4)[Fuc(a1-3)]GlcNAc
# Procedure, shortened: as §1
# [15] = target: Fuc(a1-2)[Gal(a1-4)]Gal(b1-4)GlcNAc
# Procedure, shortened: as §1
# [16] = target: Fuc(a1-2)[GalNAc(a1-3)]Gal
# Procedure, shortened: as §1
# [17] = target: Fuc(a1-2)[GalNAc(a1-3)]Gal(b1-3)GlcNAc
# Procedure, shortened: as §1
# [18] = target: Fuc(a1-2)[GalNAc(a1-3)]Gal(b1-4)Glc
# Procedure, shortened: as §1
# [19] = target: Fuc(a1-2)[GalNAc(a1-3)]Gal(b1-4)GlcNAc
# Procedure, shortened: as §1
# [20] = target: Fuc(a1-2)[GalNAc(a1-3)]Gal(b1-4)[Fuc(a1-3)]GlcNAc
# Procedure, shortened: as §1
# [21] = target: Fuc(a1-2)[GalNAc(a1-4)]Gal(b1-4)GlcNAc
# Procedure, shortened: as §1
# [22] = target: Fuc(a1-2)[GalNAc(b1-3)]Gal
# Procedure, shortened: as §1
# Fuc(a1-3)GlcNAc = target: Fuc(a1-3)GlcNAc
# Procedure, shortened: as §1
binder,measurement,setting,value
"DCIR (Homo sapiens), Q9UMR7 (protein) MTSEITYAEVRFKNEFKSSGINTASSAASKERTAPHKSNTGFPKLLCASLLIFFLLLAISFFIAFVIFFQKYSQLLEKKTTKELVHTTLECVKKNMPVEETAWSCCPKNWKSFSSNCYFISTESASWQDSEKDCARMEAHLLVINTQEEQDFIFQNLQEESAYFVGLSDPEGQRHWQWVDQTPYNESSTFWHPREPSDPNERCVVLNFRKSPKRWGWNDVNCLGPQRSVCEMMKIHL",glycan array binding signal (z-score),Fuc(a1-2)Gal,-0.187
same,glycan array binding signal (z-score),Fuc(a1-2)Gal(b1-3)GalNAc,-0.111
same,glycan array binding signal (z-score),[1],-0.347
same,glycan array binding signal (z-score),[2],-0.026
same,glycan array binding signal (z-score),[3],0.049
same,glycan array binding signal (z-score),Fuc(a1-2)Gal(b1-3)GlcNAc,-0.136
same,glycan array binding signal (z-score),[4],-0.207
same,glycan array binding signal (z-score),[5],-0.419
same,glycan array binding signal (z-score),Fuc(a1-2)Gal(b1-4)Glc,-0.479
same,glycan array binding signal (z-score),Fuc(a1-2)Gal(b1-4)GlcNAc,-0.389
same,glycan array binding signal (z-score),[6],-0.461
same,glycan array binding signal (z-score),[7],-0.35
same,glycan array binding signal (z-score),[8],-0.249
same,glycan array binding signal (z-score),[9],-0.367
same,glycan array binding signal (z-score),[10],-0.25
same,glycan array binding signal (z-score),Fuc(a1-2)GlcNAc,-0.484
same,glycan array binding signal (z-score),Fuc(a1-2)[Gal(a1-3)]Gal,-0.412
same,glycan array binding signal (z-score),[11],-0.141
same,glycan array binding signal (z-score),[12],-0.422
same,glycan array binding signal (z-score),[13],-0.284
same,glycan array binding signal (z-score),[14],-0.381
same,glycan array binding signal (z-score),[15],-0.153
same,glycan array binding signal (z-score),[16],-0.289
same,glycan array binding signal (z-score),[17],-0.424
same,glycan array binding signal (z-score),[18],-0.363
same,glycan array binding signal (z-score),[19],-0.334
same,glycan array binding signal (z-score),[20],-0.12
same,glycan array binding signal (z-score),[21],-0.114
same,glycan array binding signal (z-score),[22],-0.31
same,glycan array binding signal (z-score),Fuc(a1-3)GlcNAc,-0.36
